Values quoted from earlier work, collected in PMC6222691, “Isoxazolidine Conjugates of N3-Substituted 6-Bromoquinazolinones—Synthesis, Anti-Varizella-Zoster Virus, and Anti-Cytomegalovirus Activity” (Molecules : A Journal of Synthetic Chemistry and Natural …, 2018).

Details: VEEV study; cited from earlier work

Compound	CC50
CN1CCN(Cc2nc3ccc([N+](=O)[O-])cc3c(=O)n2-c2ccccc2F)CC1 [compound 7]	50 µM
CCN1CCN(Cc2nc3ccc([N+](=O)[O-])cc3c(=O)n2-c2ccccc2F)CC1 [compound 8]	50 µM
